24 sequences from the supplement of paper PMC11417369 can be followed below.

± gives the standard deviation of the averaged measurements. The list shows a part of the results.

The test has as its system PfAP2-I AP2 domain 3 (GST-tagged). Kind of test: gcPBM binding intensity (ln(normalized median fluorescence intensity)); higher = stronger DNA binding. The method in brief:
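Binding intensity values are the highest Masliner-normalised natural-log median intensity among replicate spots of either probe orientation. The binding step lasted 1 h in 1× PBS with 1% milk, 0.2 mg/ml BSA, 0.5% salmon testes DNA and 0.03% Triton X-100, using GST-tagged P. falciparum DNA-binding domains expressed in E. coli on an Agilent 4 × 180k array of primer-extended double-stranded 36-bp intergenic genomic probes plus negative controls. Alexa488 anti-GST antibody and a 488 nm scan detected bound protein.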
With “AAAAATGAAAGTAAGACATGCATGGAATTTTTTTTA [TGCATGCA_site347]”, the “gcPBM binding intensity (ln)” value came to 8.12 ± 0.88.

For the sequence “TTTTTTTTTTATGAAAGTACATATGAAAAATACGAA [XGTACX_site3451]”, the “gcPBM binding intensity (ln)” value came out at 8.05 ± 0.071.

For the sequence “ATTAAATAAAAAAACACACACATATATACCTATATA [CACACA_site5837]”, the “gcPBM binding intensity (ln)” value was 7.7 ± 0.49.

Consider “CAAAACATTTTATCTACACACATATATAAATAAATA [CACACA_site3220]”, for which the “gcPBM binding intensity (ln)” value was 7.61 ± 0.54.

Turning to “AATAAAACATAATAATGTACTCAAAGGTTTAACTTG [XGTACX_site4711]”, the “gcPBM binding intensity (ln)” value amounted to 7.87 ± 0.35.

Consider “AAAATAAAAGAATAAAAATATGAAACTTTTTTAAAA [GTGCAC_negctrl_site348]”, for which the “gcPBM binding intensity (ln)” value stood at 7.15 ± 0.64.

In the case of “AACGTGTGGAGAATTATAAATGAGTAAAAAATATAT [XGTACX_negctrl_site562]”, the “gcPBM binding intensity (ln)” value stood at 8.16 ± 0.83.

In the case of “GGGGGGAGGGTGAATACACACGTAATAATCATAAAC [CACACA_site8502]”, the “gcPBM binding intensity (ln)” value is 10.3 ± 0.37.

Consider “TTTGAATAAAAACAAAAAATTAAATTAAATTAAATA [CACACA_negctrl_site312]”, for which the “gcPBM binding intensity (ln)” value is 7.21 ± 0.54.

As to “TATTTATAATTATAATAATATATATATATATATATA [TGCATGCA_negctrl_site173]”, the “gcPBM binding intensity (ln)” value came to 9.21 ± 0.28.

For the sequence “ATTGTGTTAATAAAATGTACATTTTCTCTACATTAA [XGTACX_site2766]”, the “gcPBM binding intensity (ln)” value was found to be 7.92 ± 0.66.

With “ATATATATATATGTATGTACGTATGTATTTACTGCT [XGTACX_site3839]”, the “gcPBM binding intensity (ln)” value came out at 9.18 ± 0.16.

For the sequence “TCCAATATATTTATGAGTACTTATAAATTATACGTT [XGTACX_site742]”, the “gcPBM binding intensity (ln)” value was 8.09 ± 0.4.

With “TTCATACATATTTGAAGTACATTTAAAAATGTCCTT [XGTACX_site747]”, the “gcPBM binding intensity (ln)” value worked out at 7.65 ± 0.17.

With “GAAGTAATTTCATATACACACATATACATACATACA [CACACA_site6753]”, the “gcPBM binding intensity (ln)” value was determined as 8.47 ± 0.79.

Consider “GACCACTTTAGGATTTGTACACATATTATATATGCA [XGTACX_site6579]”, for which the “gcPBM binding intensity (ln)” value amounted to 8.25 ± 0.59.

On to “TACACAAACAAACACACACACACACCCCCACAAAAA [CACACA_site2428]”, for which the “gcPBM binding intensity (ln)” value is 9.7 ± 0.16.

“TAGCCATTTTTATATTGTACTTATATAATCACATTT [XGTACX_site4407]”: the “gcPBM binding intensity (ln)” value turned out to be 7.7 ± 0.64.

Turning to “ATAAAAAAAAATAACACACAGACATAAGAATAAATA [CACACA_site4162]”, the “gcPBM binding intensity (ln)” value came out at 7.78 ± 0.67.

On to “ATATAAGAAAAGCACACACACACAAAAAAAAAAAAA [CACACA_site2827]”, for which the “gcPBM binding intensity (ln)” value came to 8.48 ± 0.18.

“ATTAAAAAAAATATATATGTATAAAACAAGCAAAAT [XGTACX_negctrl_site474]”: the “gcPBM binding intensity (ln)” value came to 8.04 ± 0.64.

In the case of “TATAATAATAAAAACACACACGTTGATTGTATTAGC [CACACA_site5336]”, the “gcPBM binding intensity (ln)” value turned out to be 7.62 ± 0.89.

Turning to “TATAATGATAATAATAGTACACATTAGAACGGGAGG [XGTACX_site2563]”, the “gcPBM binding intensity (ln)” value was found to be 8.29 ± 0.41.

In the case of “CCTATTATTTCTAAAACACACAAAAATATAAAAGAA [CACACA_site2708]”, the “gcPBM binding intensity (ln)” value worked out at 7.92 ± 0.59.
